# Measurements taken from PubChem BioAssay AID1671194 (National Center for Advancing Translational Sciences (NCATS), 2021).
# Out of some 140,000 compounds screened, about 240 (0.17%) were called active. Inconclusive results, whose numbers are uncertain, are shown with a selection of clear calls. The call rests on the fitted dose curve; in most records, active means well fitted inhibition curve with a large enough effect; inconclusive means small, poorly fitted or top-dose-only effect; inactive means no such curve, though single readings can be large or run the other way. Where the call is inconclusive, the potency comes from a doubtful curve fit.
# Experiment: Primary qHTS assay for inhibitors of alpha-synuclein gene (SNCA) expression; further: nearly all actives have a fitted effect of over 45% in size
# Conditions: HEK-293 SNCA-luciferase knock-in, luminescence, 24 h; series mostly up to 57.2 µM
# Potency means the concentration at half of the fitted maximal effect; tags describe the fitted curve by direction and shape.
row,Structure (SMILES),Potency
1,Cc1ccc(Cc2c(C)nc3c(-c4ccccc4)c(C)[nH]n3c2=O)cc1,"inconclusive: 7.08 µM [inhibitor, single point]"
2,O=C(NCCc1ccccc1)C1CCN(c2cc(C(F)(F)F)ncn2)CC1,inactive
3,Cc1cc(C(=O)N2CCC(c3nccn3Cc3ccncc3)CC2)c(C)o1,"inconclusive: 3.55 µM [inhibitor, partial curve, poor fit]"
4,COc1cccc(-c2cc3c(=O)n(CCNC(=O)COc4ccccc4)ccn3n2)c1,inactive
5,O=C(CCn1cnnn1)N1CCC2(CC1)Nc1ccccc1NC2=O,inactive
6,CCOC(=O)CSc1nnc2n(-c3ccccc3)c(=O)c3c4c(sc3n12)COC(C(C)C)C4 (stereo unspecified),"inconclusive: 39.8 µM [inhibitor, single point]"
7,COc1ccc(CN2CCOc3nc(-c4ccc(C(=O)N(C)C)cc4)ncc3C2=O)cc1,inactive
8,Cc1noc2ncnc(N3CCN(c4ccccc4F)CC3)c12,"inconclusive: 2.51 µM [inhibitor, partial curve, poor fit]"
9,Cc1ccc(C)c(C(=O)N2CCC(C3CCNC3)CC2)c1 (stereo unspecified),"inconclusive: 3.55 µM [inhibitor, partial curve, poor fit]"
10,CC(C)NC(=O)CSc1nc2ccccc2c(=O)n1Cc1ccc(C(=O)NC(C)C)cc1,"inconclusive: 2.51 µM [inhibitor, single point]"
11,Cc1cccc(C)c1OCCn1c(C2CC(=O)N(Cc3ccc(F)cc3)C2)nc2ccccc21 (stereo unspecified),"inconclusive: 39.8 µM [inhibitor, single point]"
12,Cc1ccc(C)c(N2CCN(C(=O)CCn3c(=O)[nH]c4ccccc4c3=O)CC2)c1,"inconclusive: 3.55 µM [inhibitor, full curve, poor fit]"
13,CC[C@H]1CN(C(=O)c2ccc(F)cc2)CC[C@H]1CC(=O)Nc1nccs1,inactive
14,COc1ccc(Cn2ccc3nc(C)c(C(=O)NCc4ccc(C)cc4)cc3c2=O)cc1,"inconclusive: 3.16 µM [inhibitor, full curve]"
15,COC[C@H]1NC(=O)CC[C@H]1C(=O)Nc1cccc(OC(F)(F)F)c1,"inconclusive: 31.6 µM [inhibitor, single point]"
16,N#Cc1cccc(CN2CCc3ncc(C(=O)NCCOc4ccccc4)n3CC2)c1,"inconclusive: 63.1 µM [inhibitor, partial curve, poor fit]"
17,CCc1ccc(NC(=O)CCNS(=O)(=O)c2ccc3c(c2)CCCC(=O)N3)cc1,"inconclusive: 39.8 µM [inhibitor, single point]"
18,COc1ccc(NC(=O)c2oc3ccc(S(=O)(=O)N(C)C4CCCCC4)cc3c2C)cc1,"inconclusive: 17.8 µM [inhibitor, single point]"
19,COc1ccccc1-c1[nH]nc2ncc(C(=O)N3CCN(Cc4ccccc4)CC3)nc12,"inconclusive: 35.5 µM [inhibitor, partial curve, poor fit]"
20,COc1ccc(N(CC(=O)N2CCN(c3ccc(F)cc3)CC2)S(=O)(=O)c2c(C)n[nH]c2C)cc1,"inconclusive: 3.98 µM [inhibitor, full curve]"
21,CCCNc1cc(N2CCC(CCC(=O)N3CCN(c4ccc(F)cc4)CC3)CC2)ncn1,"inconclusive: 28.2 µM [inhibitor, partial curve, poor fit]"

row,Structure (SMILES),Potency
1,CC(C)(C)c1ccc(C(=O)NC(Cc2c[nH]c3ccccc23)C(=O)OCC(=O)c2ccc(Cl)cc2)cc1 (stereo unspecified),"inconclusive: 39.8 µM [inhibitor, single point]"
2,O=C(NCC(F)(F)F)c1ccc2nnc(-c3cncc(Cl)c3)n2c1,inactive
3,COc1ccc(CN2CCC[C@H]2c2nc(-c3ccnc(N4CCOCC4)c3)no2)cc1,inactive
4,COc1ccc(C2c3[nH]c4ccc(OC)cc4c3CCN2C(=O)Nc2ccccc2)cc1 (stereo unspecified),"inconclusive: 39.8 µM [inhibitor, single point]"
5,CCOc1ccccc1C(=O)NC1CCN(c2cc(-c3ccc(Cl)cc3)[nH]n2)CC1,"inconclusive: 31.6 µM [inhibitor, partial curve]"
6,CC1CCC2(CC1)NC(=O)N(CC(=O)N1CCCCC1)C2=O (stereo unspecified),inactive
7,COc1ccc(N2CC(C(=O)N3CCC(C(=O)NCC(F)(F)F)C3)NC2=O)cc1 (stereo unspecified),"inconclusive: 5.62 µM [inhibitor, partial curve, poor fit]"
8,OC(c1nc(Nc2cccc(Cl)c2)n[nH]1)C1CC1 (stereo unspecified),inactive
9,COC(=O)[C@@H]1Cc2c([nH]c3ccccc23)[C@H]2C[C@H](NCCc3cnc[nH]3)C[C@@H](c3ccccc3F)N21,"inconclusive: 17.8 µM [inhibitor, partial curve, poor fit]"
10,O=C(Nc1cccc(-n2cccn2)c1)C1CCCN1C(=O)CCn1cccn1 (stereo unspecified),"inconclusive: 7.08 µM [inhibitor, single point]"
11,COc1cccc(NS(=O)(=O)c2ccc3c(c2)CCCN3C(=O)C2CCC2)c1,"inconclusive: 11.2 µM [inhibitor, partial curve]"
12,COc1ccccc1NC(=O)C1CCN(c2cnccn2)CC1,"inconclusive: 3.16 µM [inhibitor, single point]"
13,CCN(CCN(C)C)C(=O)C1CCN(S(=O)(=O)c2c(C)noc2/C=C/c2ccccc2F)CC1,"inconclusive: 39.8 µM [inhibitor, single point]"
14,O=S(=O)(c1ccc2c(c1)CCC2)N1CCCC(Cn2c(C3CC3)nc3cccnc32)C1 (stereo unspecified),inactive
15,COc1cc(Cl)ccc1C(=O)N1CCC(Cc2nc(-c3ccc(F)cc3)no2)CC1,"inconclusive: 2.51 µM [inhibitor, full curve]"
16,Cn1nccc1CN1CCC2(C1)NC(=O)c1ccccc1O2 (stereo unspecified),inactive
17,COc1ccc(-c2ccc3ncc(Nc4cccc(O)c4)n3n2)cc1OC,inactive
18,CCCCc1nc2ccccc2n1CC(=O)N(COCC)c1c(C)cccc1CC,"inconclusive: 39.8 µM [inhibitor, single point]"
19,CCOC(=O)N1CCC2(CC1)N=C(CCC(C)C)NC2=O,"inconclusive: 8.91 µM [inhibitor, single point]"
20,CCc1cccc(NC(=O)CC2Oc3ccc(C)cc3NC2=O)c1 (stereo unspecified),"inconclusive: 2.82 µM [inhibitor, single point]"
